# Over roughly 81,000 sequences, “one-hybrid fitness for binding parS DNA” has its median near -0.17; the highest 2% begin near 0.51. This is one part of the list.
# B1: Caulobacter ParB omega fusion; a variant is named by its letters at X, in order, B8GW30 (parent)
# chain: MESVVVGEPGMSEGRRGLGRGLSALLGEVDAAPAQAPGEQLGGSREAPIEILQRNPDQPRRTFREEDLEDLSNSIREKGVLQPILVRPSPDTAGEYQIVAGERAWRAAQRAGLKTVPIMVRELDDLAVLEIGIIENVQRADLNVLEEALSYKVLMEKFERTQENIAQTIGKSXSHVANXMRLLXLPDEVQSYLVSGELTAXHARAIAAAADPVALAKQIIEGGLSVRETEALARKAPNLSAGKSKGGRPPRVKDTDTQALESDLSSVLGLDVSIDHRGSTGTLTITYATLEQLDDLCNRLTRGI
# Variants of: B1
# Test: one-hybrid fitness for binding parS DNA (scaled: cognate 1, non-cognate 0); higher = stronger binding
# Conditions: with parS DNA site
# Procedure, shortened: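 Values were rescaled so that cognate is 1 and non-cognate is 0. Each is a fitness, the log change in a variant's read ratio to wild type from Illumina reads of plasmids before and after selection, with three replicate libraries pooled and variants under 10 reads dropped. Selection of the Caulobacter ParB libraries, four specificity codons randomised, used E. coli USO with a HIS3 reporter, site 19 bp from the promoter, on M9-minus-histidine with 0.1 mM IPTG and 5 mM 3-AT for 48 hours at 37°C.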
row,Variant,one-hybrid fitness for binding parS DNA
1,IMIR,≤ 0.2
2,GFPG,≤ 0.2
3,DFNV,≤ 0.2
4,AARQ,≤ 0.2
5,LNRE,≤ 0.2
6,DQQE,≤ 0.2
7,QMAN,≤ 0.2
8,WHSE,≤ 0.2
9,LASF,≤ 0.2
10,CDRP,≤ 0.2
11,HGEK,≤ 0.2
12,HDMA,≤ 0.2
13,NHMS,≤ 0.2
14,YKET,≤ 0.2
15,VLWY,≤ 0.2
16,EAPV,≤ 0.2
17,QAYL,≤ 0.2
18,AGNI,≤ 0.2
19,LNGE,≤ 0.2
20,QADV,≤ 0.2
21,KQHF,≤ 0.2
22,HYRF,≤ 0.2
23,LKQN,≤ 0.2
24,TTAR,≤ 0.2
25,RHCN,0.381
26,HLYL,≤ 0.2

row,Variant,one-hybrid fitness for binding parS DNA
1,RWNK,≤ 0.2
2,PSML,≤ 0.2
3,EIRS,≤ 0.2
4,NENC,≤ 0.2
5,VLQI,≤ 0.2
6,SASN,≤ 0.2
7,PLVV,≤ 0.2
8,RWNY,0.339
9,AGYT,≤ 0.2
10,KNAR,≤ 0.2
11,TLMT,≤ 0.2
12,YMWN,≤ 0.2
13,MYNL,≤ 0.2
14,QYVF,≤ 0.2
15,HDAC,≤ 0.2
16,RSCD,≤ 0.2
17,RARW,0.24
18,VAIA,≤ 0.2
19,SVTP,≤ 0.2
20,NGAV,≤ 0.2
21,GNPG,≤ 0.2
22,QQFI,≤ 0.2
23,GLVP,≤ 0.2
24,HTML,≤ 0.2
25,RVKS,0.831
26,QKLS,≤ 0.2

row,Variant,one-hybrid fitness for binding parS DNA
1,LALY,≤ 0.2
2,WYWI,≤ 0.2
3,RFTG,0.977
4,EDSG,≤ 0.2
5,DLAF,≤ 0.2
6,AMDC,≤ 0.2
7,NMCS,≤ 0.2
8,RTLE,≤ 0.2
9,QVHG,≤ 0.2
10,QLNH,≤ 0.2
11,DMQG,≤ 0.2
12,TKDA,≤ 0.2
13,NPTN,≤ 0.2
14,RYEI,≤ 0.2
15,VKAS,≤ 0.2
16,HVIG,≤ 0.2
17,GNAF,≤ 0.2
18,RIPD,≤ 0.2
19,CWVC,≤ 0.2
20,PRYT,≤ 0.2
21,HTLM,≤ 0.2
22,ELME,≤ 0.2
23,QQKY,≤ 0.2
24,RQNI,≤ 0.2
25,HWTV,≤ 0.2
26,VSKL,≤ 0.2

row,Variant,one-hybrid fitness for binding parS DNA
1,SPWC,≤ 0.2
2,RPPI,≤ 0.2
3,ECAG,≤ 0.2
4,ASFM,≤ 0.2
5,YACR,≤ 0.2
6,PELT,≤ 0.2
7,TPGK,≤ 0.2
8,HQSE,≤ 0.2
9,RADE,≤ 0.2
10,LCLT,≤ 0.2
11,LVRA,≤ 0.2
12,IIMW,≤ 0.2
13,LVID,≤ 0.2
14,QAST,≤ 0.2
15,HEMR,≤ 0.2
16,LVVR,≤ 0.2
17,PPCP,≤ 0.2
18,RSDY,0.352
19,SHNT,≤ 0.2
20,SILC,≤ 0.2
21,RFVH,≤ 0.2
22,PDPN,≤ 0.2
23,GPWS,≤ 0.2
24,GQDS,≤ 0.2
25,CHPR,≤ 0.2
26,HSGP,≤ 0.2

row,Variant,one-hybrid fitness for binding parS DNA
1,QRDS,≤ 0.2
2,SMSW,≤ 0.2
3,ITSS,≤ 0.2
4,NNSC,≤ 0.2
5,DKNS,≤ 0.2
6,HLQP,≤ 0.2
7,KANA,≤ 0.2
8,IFPM,≤ 0.2
9,GQWC,≤ 0.2
10,LAVK,≤ 0.2
11,DSFI,≤ 0.2
12,GASV,≤ 0.2
13,NDMR,≤ 0.2
14,DELM,≤ 0.2
15,FSVV,≤ 0.2
16,CANG,≤ 0.2
17,LFRV,≤ 0.2
18,QRHI,≤ 0.2
19,DKHC,≤ 0.2
20,SRCF,≤ 0.2
21,GCLM,≤ 0.2
22,QLFS,≤ 0.2
23,VLQW,≤ 0.2
24,MDYV,≤ 0.2
25,HAID,≤ 0.2
26,YYAS,≤ 0.2

row,Variant,one-hybrid fitness for binding parS DNA
1,RKLP,≤ 0.2
2,DNLW,≤ 0.2
3,ITDT,≤ 0.2
4,ASQM,≤ 0.2
5,MFNR,≤ 0.2
6,ISPE,≤ 0.2
7,YVHY,≤ 0.2
8,NFMS,≤ 0.2
9,ALGS,≤ 0.2
10,AVDI,≤ 0.2
11,GLDV,≤ 0.2
12,RDTN,≤ 0.2
13,HHDK,≤ 0.2
14,MWRC,≤ 0.2
15,EYLC,≤ 0.2
16,VMWS,≤ 0.2
17,HVLT,≤ 0.2
18,RWAC,0.721
19,VHRT,≤ 0.2
20,YTFS,≤ 0.2
21,QYPP,≤ 0.2
22,YTIR,≤ 0.2
23,QMRH,≤ 0.2

# Reference: a collection of fitness landscapes (doi:10.1016/j.celrep.2020.107928)
